Test results from PubChem BioAssay AID686979 (National Center for Advancing Translational Sciences (NCATS), 2013).
Among all 420,000 compounds or so, about 50,000 (12%) were called active. This list was built around the results that the source calls inconclusive (neither active nor inactive); the mix of calls is not that of the screen. Calls follow the shape of the dose curve; as a rule, active = well fitted inhibition curve with a large enough effect; inconclusive = small, poorly fitted or top-dose-only effect; inactive = flat fitted curve, though single readings scatter. No potency is given beside an inconclusive call; the fits are too rough.

Assay: qHTS for Inhibitors of human tyrosyl-DNA phosphodiesterase 1 (TDP1): qHTS in cells in presence of CPT; also: nearly all actives have a fitted effect of over 55% in size
Details: chicken DT40 Tdp1-/-;hTDP1 cells + 20 nM CPT, ATP luminescence, 48 h; series mostly up to 46.2 µM
How it was run: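 Chicken DT40 Tdp1-/- cells stably complemented with human TDP1 were seeded at 400 cells/well in medium containing 20 nM camptothecin, exposed to pin-transferred compounds, and grown at 37 °C for at least 48 hr. Viability was read as ATP luminescence.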
Potency is read from the fitted curve at half-maximal effect; tags tell the direction and shape of the fitted curve.

SMILES | Potency
COc1ccccc1C(=O)Nc1ccc2c(c1)nc(CCNC(=O)c1ccco1)n2C | active: 1.3 µM
COCCOc1cc(NCc2ccccc2)c2ncn(C(C)C)c2c1 | inconclusive [inhibitor, single point]
COc1ccccc1NC(=S)N(Cc1ccco1)Cc1cc2cccc(C)c2[nH]c1=O | inconclusive [inhibitor, single point]
CCn1c(C)c(C)c2cc(C(=O)N3CCN(c4ccccc4)CC3)ccc21 | active: 18.4 µM
CCOc1ccc(N(CC(=O)NCc2ccccc2)S(=O)(=O)c2ccc(C)cc2)cc1 | inconclusive [inhibitor, single point]
Nc1ccccc1SC(CC(=O)c1ccccc1)c1cccc([N+](=O)[O-])c1 (stereo unspecified) | active: 16.4 µM
C[C@@H]1CN([C@@H](C)CO)C(=O)c2cc(NC(=O)Nc3ccccc3)ccc2O[C@H]1CN(C)C(=O)Nc1cccc2ccccc12 | active: 13 µM
CCCCOC(=O)C1=C(C)Nc2nnnn2C1c1ccc(OC)c(OC)c1OC (stereo unspecified) | inconclusive [inhibitor, single point]
CCc1ccc2oc(C(=O)Nc3cccnc3)c(C)c2c1 | active: 16.4 µM
CCCn1cnc2cc(NC(=O)c3cc(OC)c(OC)c(OC)c3)ccc21 | inconclusive [inhibitor, single point]
Cc1nc(CSc2nc3[nH]ncc3c(=O)n2-c2ccccc2)cs1 | inactive
COc1ccc(OC)c(NC(=O)CSc2nc3nc(C)cc(C)n3n2)c1 | inactive
Cc1ccc(CNS(=O)(=O)c2c(C)nc3sc(C)cn3c2=O)cc1 | inconclusive [inhibitor, partial curve]
Cc1ccc(Cl)cc1NC(=O)CN1C(=O)c2ccccc2Sc2ncccc21 | inconclusive [inhibitor, single point]
Cc1ccc(S(=O)(=O)N2CCN(C(=O)COC(=O)/C=C/c3ccccc3)CC2)c(C)c1 | active: 16.4 µM
COc1ccc(/C=C(\C#N)C(=O)NC(C)c2ccccc2)cc1O (stereo unspecified) | inactive
Cc1cc(C(=O)CSc2nnc(Nc3ccccc3)s2)c(C)n1CC1CCCO1 (stereo unspecified) | active: 11.6 µM
CCc1ccc(-c2nc(CS(=O)CC(=O)NCc3ccc(F)cc3)c(C)o2)cc1 (stereo unspecified) | inconclusive [inhibitor, single point]
CCC(C)c1ccc(NC(=S)NC2CCN(Cc3ccccc3)CC2)cc1 (stereo unspecified) | active: 8.2 µM
COCCNC(=S)N1CCC(c2nc(-c3ccc(N(C)C)cc3)no2)CC1 | inactive
Cc1cccc(N2CCN(Cc3nnc(-c4cccc(Br)c4)o3)CC2)c1C | inconclusive [inhibitor, single point]
Fc1cccc(CN2CCN3CCCC3C2C2CCCCC2)c1 (stereo unspecified) | inconclusive [inhibitor, single point]
O=C(c1cccc(Cl)c1)N1CCCC(c2ccc(Cl)cc2)=N1 | inconclusive [inhibitor, single point]

SMILES | Potency
CC(C)C(NS(=O)(=O)c1c(Cl)cccc1Cl)C(=O)OCC(=O)c1c[nH]c2ccccc12 (stereo unspecified) | inconclusive [inhibitor, single point]
Cc1ncc(CSc2ccc(Cl)cc2)c(CO)c1O | inactive
Cc1cc(S(=O)(=O)N2CCOCC2)ccc1OCC(=O)Nc1cccc(C(F)(F)F)c1 | inactive
Cc1nc(-c2ccccn2)nc(SCC(=O)c2ccc(F)cc2)c1Cl | inconclusive [inhibitor, single point]
Fc1ccc(-c2cc(C(F)(F)F)nc(-n3cccn3)n2)cc1 | inconclusive [inhibitor, single point]
Nc1[nH]c(C(=O)c2ccccc2)c(-c2cccnc2)c1C(=O)NCCc1ccc(Cl)cc1Cl | inconclusive [inhibitor, single point]
Cc1cc(C(=O)N/N=C2\CCCc3ccccc32)c(C)o1 | inactive
CC(C)(C)C1CCC(C(=O)OCC(=O)N2CCN(C(=O)c3ccco3)CC2)CC1 (stereo unspecified) | inconclusive [inhibitor, single point]
O=S(=O)(c1ccc2nc(-c3ccccc3)[nH]c2c1)N1CCN(c2cccc(Cl)c2)CC1 | inactive
CCCOC(=O)c1cccc(NC(=O)CSc2nnc3cc(C)c4ccccc4n23)c1 | inactive
O=C(NCCc1nccs1)C1CCC(=O)N(CCc2ccc(Cl)cc2)C1 (stereo unspecified) | inactive
CC(=O)c1ccc(NC(=O)c2nc(-c3ccccc3)n(-c3ccc(C)cc3)n2)cc1 | inconclusive [inhibitor, single point]
CCOc1ccccc1OCC(=O)OCC(=O)c1c(N)n(CC(C)C)c(=O)n(C)c1=O | inconclusive [inhibitor, single point]
O=C1C=CC(n2cc(F)c(=O)[nH]c2=O)O1 (stereo unspecified) | active: 18.4 µM
Clc1ccc(-c2nc3c4ccccc4ccn3c2Cc2cccc(Cl)c2)cc1 | inconclusive [inhibitor, partial curve]
S=c1[nH]nc(-c2ccco2)n1/N=C/C=C/c1ccccc1 | inactive
O=C(NCc1cccc(Cl)c1)C1CCCN(c2nn3cc(-c4ccc(F)cc4)nc3s2)C1 (stereo unspecified) | inconclusive [inhibitor, single point]
CC1(CC(=O)N/N=C/c2ccc(-c3cccc(C(F)(F)F)c3)o2)OCCO1 | inconclusive [inhibitor, single point]
O=C(Nc1cccc(Cl)c1)C1CCCCC1 | inconclusive [inhibitor, single point]
COc1ccccc1NC(=O)Cn1c(=O)oc2cc(S(=O)(=O)NCc3ccccc3)ccc21 | inconclusive [inhibitor, partial curve]
Clc1ccc2nc(-c3ccc(N4CCOCC4)cc3)c(Nc3ccccc3)n2c1 | inconclusive [inhibitor, single point]
COC(=O)c1ccccc1NC(=O)CCC(=O)N1CC(C)Oc2ccc(C)cc21 (stereo unspecified) | active: 14.6 µM
O=S(=O)(c1ccccc1)c1nc(-c2ccco2)oc1Nc1ccccc1 | inconclusive [inhibitor, single point]
